The text below walks through data of PubChem BioAssay (NCI).

SMILES strings stand for the structures.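 Assay format: 96-well plates, 48-hour exposure. GI50: concentration for 50% inhibition of growth. TGI marks complete inhibition of growth.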 A value given as a limit tells only on which side of the number the result lay.

This assay has as its system NCI-H322M lung. Nature of the assay: NCI anticancer screen, dose series, 48 h.
With `Fc1ccc(-c2cc3nc(C(Cl)Cl)nc(-c4cccs4)n3n2)cc1`, the GI50 is 583 nM and the TGI was 3.27 µM.
The like results for `COc1ccc([C@H]2[C@H](O)C(=O)N2c2cc(OC)c(OC)c(OC)c2)cc1` were, in that order, below 22.7 nM and above 100 µM.
As for `O=C1/C(=C/c2ccccc2[N+](=O)[O-])Oc2ccc(O)cc21`, the GI50 is 11900 nM and the TGI was determined as 33.4 µM.
